# Results taken from the supplement of paper PMC8728848.
# The list shows a part of the results.
# B1: FliD (Clostridium difficile) (protein)
# chain: MSSISPVRVTGLSGNFDMEGIIEASMIRDKEKVNKAKQDQQIVKWKQEIYRDIIKESKNLYDKYLNGDSPNSITNKKAYSATRITSSDESIIVAKGSAGAEKINYQFAVSQMAEPAKVTIKLNSSDPIVQQFPPNASGASSLNIGGVNIPISEQDTTSTIVSKINSLCADNDIRASYSEMTGELIISRKQTGSSSDIDLKVIGNDSLAGQIASDNGITFTTDASGTKSAVVYGKNLEADVTDDQGRVTHISKEQNSFKIDNIDYNVNSKGSAKLVSVTDTEEATKNMKAFVDDYNALMDKVYGLVTTKKSKDYPPLTDEQKDDMTTEEIEKWEKKAKEGILRNDDELRAFVEDIQSMFFGDADTIIALRKLGISEHENYNKKGQISFNADTFSKALIDDSDKVYKALAGYSSNYDDKGMFEKLKKIVFEYSGSSASKLTKKAGMENSSSASQNVYSKQIAEQERNISRLVEKMNDKEKRLYAKYSALESLLNKYSSQMNYFSQAQGN
# Tests used:
# Assay in all cases: glycan array binding signal (z-score within array); higher = stronger binding
# Details in all cases: glycan notation: IUPAC condensed, linker removed
# [1] = molecular target: Gal(b1-3)[GlcNAc(b1-6)]GalNAc
# Procedure, shortened: (§1)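 The binding signal is a Z-score computed within each array. Data were drawn from 3228 arrays in the Consortium for Functional Glycomics database, restricted to those with a known protein sequence. Scores were averaged over arrays of the same protein sequence at different concentrations or buffers, and over linkers, and negative values can be taken as non-binding.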
# [2] = molecular target: Gal(b1-3)[Neu5Ac(a2-6)]GalNAc
# Procedure, shortened: as §1
# [3] = molecular target: Gal(b1-3)[Neu5Ac(a2-6)]GlcNAc(b1-4)Gal(b1-4)Glc
# Procedure, shortened: as §1
# [4] = molecular target: Gal(b1-3)[Neu5Ac(b2-6)]GalNAc
# Procedure, shortened: as §1
# Gal(b1-4)Gal = molecular target: Gal(b1-4)Gal
# Procedure, shortened: as §1
# [5] = molecular target: Gal(b1-4)GalNAc(a1-3)[Fuc(a1-2)]Gal(b1-4)GlcNAc
# Procedure, shortened: as §1
# [6] = molecular target: Gal(b1-4)GalNAc(b1-3)[Fuc(a1-2)]Gal(b1-4)GlcNAc
# Procedure, shortened: as §1
# Gal(b1-4)Glc = molecular target: Gal(b1-4)Glc
# Procedure, shortened: as §1
# Gal(b1-4)Glc6S = molecular target: Gal(b1-4)Glc6S
# Procedure, shortened: as §1
# Gal(b1-4)GlcNAc = molecular target: Gal(b1-4)GlcNAc
# Procedure, shortened: as §1
# [7] = molecular target: Gal(b1-4)GlcNAc(a1-6)Gal(b1-4)GlcNAc
# Procedure, shortened: as §1
# Gal(b1-4)GlcNAc(b1-2)Man = molecular target: Gal(b1-4)GlcNAc(b1-2)Man
# Procedure, shortened: as §1
# [8] = molecular target: Gal(b1-4)GlcNAc(b1-2)Man(a1-3)Man(b1-4)GlcNAc(b1-4)GlcNAc
# Procedure, shortened: as §1
# [9] = molecular target: Gal(b1-4)GlcNAc(b1-2)Man(a1-3)[Gal(b1-4)GlcNAc(b1-2)Man(a1-6)]Man(b1-4)GlcNAc(b1-4)GlcNAc
# Procedure, shortened: as §1
# [10] = molecular target: Gal(b1-4)GlcNAc(b1-2)Man(a1-3)[Gal(b1-4)GlcNAc(b1-2)Man(a1-6)]Man(b1-4)GlcNAc(b1-4)[Fuc(a1-6)]GlcNAc
# Procedure, shortened: as §1
# [11] = molecular target: Gal(b1-4)GlcNAc(b1-2)Man(a1-3)[Gal(b1-4)GlcNAc(b1-2)Man(a1-6)][Gal(b1-4)GlcNAc(b1-4)]Man(b1-4)GlcNAc(b1-4)[Fuc(a1-6)]GlcNAc
# Procedure, shortened: as §1
# [12] = molecular target: Gal(b1-4)GlcNAc(b1-2)Man(a1-3)[Gal(b1-4)GlcNAc(b1-2)Man(a1-6)][GlcNAc(b1-4)]Man(b1-4)GlcNAc(b1-4)[Fuc(a1-6)]GlcNAc
# Procedure, shortened: as §1
# [13] = molecular target: Gal(b1-4)GlcNAc(b1-2)Man(a1-3)[GlcNAc(b1-2)Man(a1-6)]Man(b1-4)GlcNAc(b1-4)GlcNAc
# Procedure, shortened: as §1
# [14] = molecular target: Gal(b1-4)GlcNAc(b1-2)Man(a1-3)[GlcNAc(b1-4)][Gal(b1-4)GlcNAc(b1-2)Man(a1-6)]Man(b1-4)GlcNAc(b1-4)GlcNAc
# Procedure, shortened: as §1
# [15] = molecular target: Gal(b1-4)GlcNAc(b1-2)Man(a1-3)[Man(a1-6)]Man(b1-4)GlcNAc(b1-4)GlcNAc
# Procedure, shortened: as §1
# [16] = molecular target: Gal(b1-4)GlcNAc(b1-2)Man(a1-6)Man(b1-4)GlcNAc(b1-4)GlcNAc
# Procedure, shortened: as §1
# [17] = molecular target: Gal(b1-4)GlcNAc(b1-2)Man(a1-6)[GlcNAc(b1-2)Man(a1-3)]Man(b1-4)GlcNAc(b1-4)GlcNAc
# Procedure, shortened: as §1
# [18] = molecular target: Gal(b1-4)GlcNAc(b1-2)Man(a1-6)[Man(a1-3)]Man(b1-4)GlcNAc(b1-4)GlcNAc
# Procedure, shortened: as §1
# [19] = molecular target: Gal(b1-4)GlcNAc(b1-2)[Gal(b1-4)GlcNAc(b1-4)]Man(a1-3)[Gal(b1-4)GlcNAc(b1-2)Man(a1-6)]Man(b1-4)GlcNAc(b1-4)GlcNAc
# Procedure, shortened: as §1
# [20] = molecular target: Gal(b1-4)GlcNAc(b1-2)[Gal(b1-4)GlcNAc(b1-4)]Man(a1-3)[Gal(b1-4)GlcNAc(b1-2)[Gal(b1-4)GlcNAc(b1-6)]Man(a1-6)]Man(b1-4)GlcNAc(b1-4)GlcNAc
# Procedure, shortened: as §1
# [21] = molecular target: Gal(b1-4)GlcNAc(b1-2)[Gal(b1-4)GlcNAc(b1-4)]Man(a1-3)[GlcNAc(b1-4)][Gal(b1-4)GlcNAc(b1-2)Man(a1-6)]Man(b1-4)GlcNAc(b1-4)GlcNAc
# Procedure, shortened: as §1
# [22] = molecular target: Gal(b1-4)GlcNAc(b1-2)[Gal(b1-4)GlcNAc(b1-4)]Man(a1-3)[GlcNAc(b1-4)][Gal(b1-4)GlcNAc(b1-2)[Gal(b1-4)GlcNAc(b1-6)]Man(a1-6)]Man(b1-4)GlcNAc(b1-4)GlcNAc
# Procedure, shortened: as §1
# [23] = molecular target: Gal(b1-4)GlcNAc(b1-2)[Gal(b1-4)GlcNAc(b1-6)]Man(a1-6)[Gal(b1-4)GlcNAc(b1-2)Man(a1-3)]Man(b1-4)GlcNAc(b1-4)GlcNAc
# Procedure, shortened: as §1
# [24] = molecular target: Gal(b1-4)GlcNAc(b1-2)[Gal(b1-4)GlcNAc(b1-6)]Man(a1-6)[Gal(b1-4)GlcNAc(b1-2)Man(a1-3)]Man(b1-4)GlcNAc(b1-4)[Fuc(a1-6)]GlcNAc
# Procedure, shortened: as §1
# [25] = molecular target: Gal(b1-4)GlcNAc(b1-2)[Gal(b1-4)GlcNAc(b1-6)]Man(a1-6)[GlcNAc(b1-4)][Gal(b1-4)GlcNAc(b1-2)Man(a1-3)]Man(b1-4)GlcNAc(b1-4)GlcNAc
# Procedure, shortened: as §1
# [26] = molecular target: Gal(b1-4)GlcNAc(b1-2)[Gal(b1-4)GlcNAc(b1-6)]Man(a1-6)[GlcNAc(b1-4)][Gal(b1-4)GlcNAc(b1-2)[Gal(b1-4)GlcNAc(b1-4)]Man(a1-3)]Man(b1-4)GlcNAc(b1-4)[Fuc(a1-6)]GlcNAc
# Procedure, shortened: as §1
# [27] = molecular target: Gal(b1-4)GlcNAc(b1-3)Gal(b1-3)GalNAc
# Procedure, shortened: as §1
# [28] = molecular target: Gal(b1-4)GlcNAc(b1-3)Gal(b1-3)GlcNAc
# Procedure, shortened: as §1
# [29] = molecular target: Gal(b1-4)GlcNAc(b1-3)Gal(b1-4)Glc
# Procedure, shortened: as §1
# [30] = molecular target: Gal(b1-4)GlcNAc(b1-3)Gal(b1-4)GlcNAc
# Procedure, shortened: as §1
# [31] = molecular target: Gal(b1-4)GlcNAc(b1-3)Gal(b1-4)GlcNAc(b1-2)Man(a1-3)[Gal(b1-4)GlcNAc(b1-3)Gal(b1-4)GlcNAc(b1-2)Man(a1-6)]Man(b1-4)GlcNAc(b1-4)GlcNAc
# Procedure, shortened: as §1
# [32] = molecular target: Gal(b1-4)GlcNAc(b1-3)Gal(b1-4)GlcNAc(b1-2)Man(a1-3)[Gal(b1-4)GlcNAc(b1-3)Gal(b1-4)GlcNAc(b1-2)Man(a1-6)]Man(b1-4)GlcNAc(b1-4)[Fuc(a1-6)]GlcNAc
# Procedure, shortened: as §1
# [33] = molecular target: Gal(b1-4)GlcNAc(b1-3)Gal(b1-4)GlcNAc(b1-2)[Gal(b1-4)GlcNAc(b1-3)Gal(b1-4)GlcNAc(b1-6)]Man(a1-6)[Gal(b1-4)GlcNAc(b1-3)Gal(b1-4)GlcNAc(b1-2)Man(a1-3)]Man(b1-4)GlcNAc(b1-4)GlcNAc
# Procedure, shortened: as §1
binder,measurement,setting,value
B1,glycan array binding signal (z-score),[1],-0.239
same,glycan array binding signal (z-score),[2],-0.243
same,glycan array binding signal (z-score),[3],-0.186
same,glycan array binding signal (z-score),[4],-0.249
same,glycan array binding signal (z-score),Gal(b1-4)Gal,0.115
same,glycan array binding signal (z-score),[5],-0.249
same,glycan array binding signal (z-score),[6],-0.247
same,glycan array binding signal (z-score),Gal(b1-4)Glc,-0.175
same,glycan array binding signal (z-score),Gal(b1-4)Glc6S,-0.106
same,glycan array binding signal (z-score),Gal(b1-4)GlcNAc,-0.221
same,glycan array binding signal (z-score),[7],-0.083
same,glycan array binding signal (z-score),Gal(b1-4)GlcNAc(b1-2)Man,0.089
same,glycan array binding signal (z-score),[8],-0.137
same,glycan array binding signal (z-score),[9],-0.143
same,glycan array binding signal (z-score),[10],-0.22
same,glycan array binding signal (z-score),[11],-0.238
same,glycan array binding signal (z-score),[12],-0.23
same,glycan array binding signal (z-score),[13],-0.236
same,glycan array binding signal (z-score),[14],-0.235
same,glycan array binding signal (z-score),[15],-0.11
same,glycan array binding signal (z-score),[16],-0.233
same,glycan array binding signal (z-score),[17],-0.227
same,glycan array binding signal (z-score),[18],-0.108
same,glycan array binding signal (z-score),[19],-0.254
same,glycan array binding signal (z-score),[20],-0.202
same,glycan array binding signal (z-score),[21],-0.207
same,glycan array binding signal (z-score),[22],-0.21
same,glycan array binding signal (z-score),[23],-0.161
same,glycan array binding signal (z-score),[24],-0.222
same,glycan array binding signal (z-score),[25],-0.175
same,glycan array binding signal (z-score),[26],-0.175
same,glycan array binding signal (z-score),[27],-0.206
same,glycan array binding signal (z-score),[28],-0.084
same,glycan array binding signal (z-score),[29],-0.186
same,glycan array binding signal (z-score),[30],-0.209
same,glycan array binding signal (z-score),[31],-0.105
same,glycan array binding signal (z-score),[32],1.44
same,glycan array binding signal (z-score),[33],0.049
